Data published in paper PMC11149917, “Translational and Therapeutic Evaluation of RAS-GTP Inhibition by RMC-6236 in RAS-Driven Cancers” (Cancer Discovery, 2024).
Where “and” joins values, the source holds several entries; their conditions need not be identical. Equal values may be shown once. Further values from the same series stand in other lists.

Experiment: Mouse blood and tissue PK (LC/MS-MS)
Type: in vivo
Experimental: For single-dose PKPD study, mice were randomized and assigned into groups (n = 3/dose/time point). […] Blood and tissues, including the tumor, brain, colon, ear skin, and muscle, were harvested at indicated time points. […] The whole blood, tumor, brain, colon, and ear skin concentrations of RMC-6236 were determined using liquid chromatography–tandem mass spectrometry (LC/MS-MS) methods. […] After thorough mixing and centrifugation, the supernatant was diluted with water or directly analyzed on a Sciex 5500 or Sciex 6500+ triple quadrupole mass spectrometer equipped with an ACQUITY or Shimadzu UPLC system. […] Bioanalysis on blood and tissue samples from xenograft models was run at Pharmaron and Wuxi AppTec. Concentrations reported as below the quantification limit were treated as zero for PK analysis. PK parameters were calculated by noncompartmental analysis of the concentration–time profiles using Phoenix WinNonLin (version 8.3 Certara). Apparent terminal elimination half-life (t1/2) values were calculated as ln(2)/k, where k represents the terminal elimination rate constant. Area under the concentration–time curve (AUC) values were estimated using a linear trapezoidal method. AUClast values were calculated from the dosing time to the last quantifiable concentration. Maximum concentration (Cmax) was recorded as observed.

For CCn1c(-c2cc(N3CCN(C)CC3)cnc2[C@H](C)OC)c2c3cc(ccc31)-c1csc(n1)C[C@H](NC(=O)[C@H]1C[C@@H]1C)C(=O)N1CCC[C@H](N1)C(=O)OCC(C)(C)C2 [RMC-6236], the “RMC-6236 (nM) Tumor” value (HPAC #3, 50 mg/kg, 4h, individual animals) was 3267 nM and 2947 nM, the “RMC-6236 (nM) Tumor” value (HPAC #3, 50 mg/kg, 8h, individual animals) was 3218 nM and 5622 nM and the “RMC-6236 (nM) Tumor” value (HPAC #3, 50 mg/kg, 24h, individual animals) was 4180 nM. The “RMC-6236 (nM) Tumor” value (HPAC #4, 25 mg/kg, 8h, individual animals) was 2639 nM and 3650 nM, the “RMC-6236 (nM) Tumor” value (HPAC #4, 25 mg/kg, 24h, individual animals) was 1960 nM and 1578 nM and the “RMC-6236 (nM) Tumor” value (HPAC #4, 25 mg/kg, 48h, individual animals) was 382 nM and 837 nM and 646 nM. The “RMC-6236 (nM) Tumor” value (HPAC #11, 1 mg/kg, 4h, individual animals) was 52.9 nM and 121 nM and 45.7 nM, the “RMC-6236 (nM) Tumor” value (HPAC #11, 1 mg/kg, 8h, individual animals) was 118 nM and the “RMC-6236 (nM) Tumor” value (KP-4, study KP-4 #3, 25 mg/kg, 8h) was 2910 nM and 2614 nM. The “RMC-6236 (nM) Tumor” value (KP-4, study KP-4 #3, 25 mg/kg, 24h) was 726 nM and 1356 nM, the “RMC-6236 (nM) Tumor” value (KP-4, study KP-4 #3, 50 mg/kg, 8h) was 4377 nM and 8002 nM and the “RMC-6236 (nM) Tumor” value (KP-4, study KP-4 #3, 50 mg/kg, 24h) was 2232 nM and 2934 nM. The “RMC-6236 (nM) Tumor” value (KP-4, study KP-4 #3, 50 mg/kg, 48h) was 397 nM and 551 nM, the “RMC-6236 (nM) Tumor” value (KP-4, study KP-4 #4, 25 mg/kg, 8h) was 3354 nM and 3045 nM and the “RMC-6236 (nM) Tumor” value (KP-4, study KP-4 #4, 25 mg/kg, 24h) was 1005 nM and 1652 nM. For the same compound, the “RMC-6236 (nM) Tumor” value (KP-4, study KP-4 #4, 25 mg/kg, 48h) was 422 nM, the “RMC-6236 (nM) Tumor” value (KP-4, study KP-4 #4, 40 mg/kg, 24h) was 2676 nM and 1738 nM and the “RMC-6236 (nM) Tumor” value (KP-4, study KP-4 #4, 40 mg/kg, 48h) was 755 nM and 1080 nM. For the same compound, the “RMC-6236 (nM) Tumor” value (KP-4, study KP-4 #4, 100 mg/kg, 8h) was 8890 nM and 8692 nM, the “RMC-6236 (nM) Tumor” value (KP-4, study KP-4 #4, 100 mg/kg, 24h) was 6448 nM and 4698 nM and the “RMC-6236 (nM) Tumor” value (KP-4, study KP-4 #5, 25 mg/kg, 4h) was 3458 nM and 2197 nM. For the same compound, the “RMC-6236 (nM) Tumor” value (KP-4, study KP-4 #5, 25 mg/kg, 24h) was 1668 nM and 852 nM, the “RMC-6236 (nM) Tumor” value (KP-4, study KP-4 #5, 25 mg/kg, 48h) was 302 nM and 382 nM and the “RMC-6236 (nM) Tumor” value (KP-4, study KP-4 #6, 3 mg/kg, 4h) was 340 nM and 301 nM. For the same compound, the “RMC-6236 (nM) Tumor” value (KP-4, study KP-4 #6, 3 mg/kg, 8h) was 503 nM and 464 nM, the “RMC-6236 (nM) Tumor” value (KP-4, study KP-4 #6, 3 mg/kg, 12h) was 168 nM and 254 nM and the “RMC-6236 (nM) Tumor” value (KP-4, study KP-4 #6, 3 mg/kg, 48h) was 28.8 nM and 31.7 nM. The “RMC-6236 (nM) Tumor” value (KP-4, study KP-4 #6, 10 mg/kg, 48h) was 142 nM and 269 nM, the “RMC-6236 (nM) Tumor” value (KP-4, study KP-4 #6, 25 mg/kg, 8h) was 4774 nM and 4313 nM and the “RMC-6236 (nM) Tumor” value (KP-4, study KP-4 #6, 25 mg/kg, 24h) was 1160 nM and 2156 nM. The “RMC-6236 (nM) Tumor” value (KP-4, study KP-4 #6, 25 mg/kg, 48h) was 434 nM, the “RMC-6236 (nM) Tumor” value (NCI-H441 xenograft tumor, study NCI-H441#6, 3 mg/kg, 24h) was 187 nM and 179 nM and the “RMC-6236 (nM) Tumor” value (NCI-H441 xenograft tumor, study NCI-H441#6, 3 mg/kg, 48h) was 55.9 nM and 67.3 nM. For the same compound, the “RMC-6236 (nM) Tumor” value (NCI-H441 xenograft tumor, study NCI-H441#6, 10 mg/kg, 8h) was 973 nM and 1160 nM, the “RMC-6236 (nM) Tumor” value (NCI-H441 xenograft tumor, study NCI-H441#6, 10 mg/kg, 24h) was 266 nM and 275 nM and the “RMC-6236 (nM) Tumor” value (NCI-H441 xenograft tumor, study NCI-H441#6, 10 mg/kg, 48h) was 165 nM and 264 nM. For the same compound, the “RMC-6236 (nM) Tumor” value (NCI-H441 xenograft tumor, study NCI-H441#6, 25 mg/kg, 8h) was 3193 nM and 2133 nM, the “RMC-6236 (nM) Tumor” value (NCI-H441 xenograft tumor, study NCI-H441#6, 25 mg/kg, 24h) was 978 nM and 703 nM and the “RMC-6236 (nM) Tumor” value (NCI-H441 xenograft tumor, study NCI-H441#6, 25 mg/kg, 48h) was 926 nM and 502 nM. For the same compound, the “RMC-6236 (nM) Tumor” value (NCI-H441 xenograft tumor, study NCI-H441#6, 50 mg/kg, 8h) was 3785 nM and 5844 nM, the “RMC-6236 (nM) Tumor” value (NCI-H441 xenograft tumor, study NCI-H441#6, 50 mg/kg, 24h) was 1541 nM and 2786 nM and the “RMC-6236 (nM) Tumor” value (NCI-H441 xenograft tumor, study NCI-H441#6, 100 mg/kg, 24h) was 5967 nM and 3267 nM. The “RMC-6236 (nM) Tumor” value (NCI-H441 xenograft tumor, study NCI-H441#6, 100 mg/kg, 48h) was 1714 nM and 1775 nM, the “RMC-6236 (nM) Tumor” value (NCI-H441 xenograft tumor, study NCI-H441#8, 25 mg/kg, 8h) was 1738 nM and 2491 nM and the “RMC-6236 (nM) Tumor” value (NCI-H441 xenograft tumor, study NCI-H441#8, 25 mg/kg, 24h) was 1147 nM and 761 nM. For the same compound, the “RMC-6236 (nM) Tumor” value (NCI-H441 xenograft tumor, study NCI-H441#8, 40 mg/kg, 2h) was 2589 nM and 3428 nM.
